The data set relates to ATP. Briefly: switch fluorescence ratio, 500 uM ATP over buffer (Cy3 cluster intensity, sum of 5 cycles each) (fold (ratio)); higher = stronger signal-on switching upon ATP binding; sequences stand for … in TCGTCGGCAGCGTCAGATGTGTATAAGAGACAGTTTTTTTTTTTTTTTTTTTTTTTTT…TC. The settings on record: aptamer strand: ATP DNA aptamer (quencher-CACCTGGGGGAGTATTGCGGAGGAAGG + anchor), 100 nM annealed; ATP concentration: 500 uM; one replicate. The method, boiled down: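 Clusters with intensities outside 100-1000 RFU were excluded. The remaining Cy3-labelled switching-strand clusters on a modified Illumina MiSeq flow-cell had been annealed to 100 nM quencher-labelled ATP aptamer and imaged in selection buffer, then after 15 min with 500 uM ATP at 22 °C, for five cycles separated by NaOH stripping and re-annealing. The fluorescence ratio, averaged per switch-domain sequence, is each cluster's summed target-cycle Cy3 intensity over its summed buffer-cycle Cy3 intensity.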

Values marked as one replicate rest on one cluster of the flow cell; about a third of the high ones do not repeat.
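Also: ATP exposure 15 min at 22 °C before imaging.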

As for TAGGTCACTT, the switch fluorescence ratio turned out to be 0.999.

With TGGGTTTCAC, the switch fluorescence ratio is 0.973. The same measure for CGGCTCGCAC: 1.66. Turning to TTCATGTCC, the switch fluorescence ratio is 1.04.

With TAGCTGTTTG, the switch fluorescence ratio came to 0.99.

As for CTATACTCGC, the switch fluorescence ratio is 1.28.

As for CATTTAACGC, the switch fluorescence ratio was 0.992.

AATAGTCTCA: the switch fluorescence ratio was determined as 1.01. Take GGGTCCTATG: the switch fluorescence ratio turned out to be 0.956. Regarding ACTTTGATAG, the switch fluorescence ratio turned out to be 1.03. For the sequence CAAAGGTTAA, the switch fluorescence ratio was determined as 0.981.

With ACGTGTTACG, the switch fluorescence ratio is 1.02. To TTGAGGGCGT belongs 0.997. As for TCCGGGTAGT, the switch fluorescence ratio is 1.05.

Take CTTGACGGCC: the switch fluorescence ratio is 0.978. On to TGGGCAGTAG, for which the switch fluorescence ratio is 1.05. To ATAGTCGAAG belongs 1; to AGAAACACCT, 1.35; to AGGGGATAAC, 0.982. In the case of AGATTGGGAT, the switch fluorescence ratio worked out at 1. Consider GAGGATCAAA, for which the switch fluorescence ratio was determined as 0.965. As to AGGGACGTCA, the switch fluorescence ratio was 1.06. To GGTGAAGCAT belongs 0.996; to GTGTGTGTTT, 1.01. GTATGTCGTC: the switch fluorescence ratio stood at 0.951. On to CTAGCAGCAT, for which the switch fluorescence ratio came out at 1.28. Turning to TAAAAACCCC, the switch fluorescence ratio amounted to 1.05.

Consider GCACCAGGTT, for which the switch fluorescence ratio was 2.45. With CCTAACAAAA, the switch fluorescence ratio was 1.04. For CGGTGGGAAC, the switch fluorescence ratio turned out to be 1.03. ATTACAGATG: the switch fluorescence ratio is 1.04.

For the sequence TTACTTAGTT, the switch fluorescence ratio was 1.06. As to CCGCGTTGAA, the switch fluorescence ratio came out at 1.38. As for AAAACATCGT, the switch fluorescence ratio stood at 0.984.

For CCAGAAAATA, the switch fluorescence ratio came out at 0.984.

Take CTGGCAGCTG: the switch fluorescence ratio was 0.978. As to TTTTTGTCTA, the switch fluorescence ratio worked out at 0.997. In the case of GTTCTACTTG, the switch fluorescence ratio turned out to be 1. Turning to CCGGAACATT, the switch fluorescence ratio amounted to 1.28.

As to ACGTAAATGC, the switch fluorescence ratio turned out to be 1.64.

With CGGGACATTG, the switch fluorescence ratio stood at 0.99.

Consider TCTCGCTTCA, for which the switch fluorescence ratio was determined as 1.04. To GGAAGTTACG belongs 1; to TAAGGGGTT, 1.03. The same measure for GCCATTAATT: 0.982. Turning to GCTCGGCCGA, the switch fluorescence ratio was 0.949. Consider TTGGGTCGTC, for which the switch fluorescence ratio came to 0.989. CCAGATACCC: the switch fluorescence ratio was 1.16. Take ACCGCGA: the switch fluorescence ratio amounted to 2.31. In the case of GTCTTATGCC, the switch fluorescence ratio was determined as 0.969.

Turning to CGTCAATCTC, the switch fluorescence ratio was 3.43. Take CATACCAGTA: the switch fluorescence ratio was 1. The same measure for AATTAGATAA: 0.963. Take AGAATAAGCA: the switch fluorescence ratio was 1.06. With TACGGGTTAC, the switch fluorescence ratio worked out at 0.985.

On to AGCTACGGT, for which the switch fluorescence ratio came to 1.05. Regarding TACAAACGT, the switch fluorescence ratio is 1.64. In the case of CATACACTCG, the switch fluorescence ratio was 1.04. With TTATGGAGTC, the switch fluorescence ratio turned out to be 1.04. For GCTGACAATA, the switch fluorescence ratio came to 1.03. The same measure for TAGGGGGACA: 0.989; for GCTGTTGGGG: 1.01; for ATGTTGGGCC: 0.97.

Take ATGCCACTGA: the switch fluorescence ratio was found to be 1.01.

Turning to ATACTGACGT, the switch fluorescence ratio was determined as 1.4.

On to AAAGGGCAAA, for which the switch fluorescence ratio was determined as 1. In the case of TAAATCTGAG, the switch fluorescence ratio came out at 1.05.

The values are drawn from the supplement of paper PMC10126150.
